In the supplement of paper PMC10037445:
Over roughly 2,900 compounds, “NF-kB SEAP reporter activity, fold change vs agonist alone” has its median near 0.99; the highest 2% begin near 2.6. The list shows a part of the results.

Legend:
RAW-Dual [1] = test: NF-kB SEAP reporter activity, fold change vs agonist alone; higher = enhanced NF-kB activity; conditions: cytotoxicity flag (confluency mask): not cytotoxic
Procedure, shortened: (§1)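 Library stock was pin-tooled at 50 nL into 384-well plates of RAW-Dual macrophages (50,000 cells/well, DMEM), followed 1 h later by a PRR agonist, and the cells were kept at 37 °C, 5% CO2. Supernatant collected after 20 hours was read for IRF by QuantiLuc luminescence and for NF-κB by QuantiBlue absorbance at 620 nm. Reporter activity is fold change over agonist-alone wells, and a well counted as cytotoxic when its IncuCyte confluency was below 70% of agonist controls in both mask sets.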

RAW-Dual [2] = test: NF-kB SEAP reporter activity, fold change vs agonist alone; cytotoxicity flag (confluency mask): not cytotoxic; higher = enhanced NF-kB activity
Procedure, shortened: as §1

[3] = library stock concentration (final ~1000-fold dilution): 10 mM, agonist: Imiquimod (TLR7) […]
[4] = library stock concentration (final ~1000-fold dilution): 10 mM, agonist: MPLA (TLR4) […]
[5] = agonist: ODN 1826 (TLR9) 0.5 ug/mL
[6] = agonist: Pam2CSK4 (TLR2/6) 0.1 ug/mL
[7] = agonist: Pam3CSK4 (TLR2/1) 0.1 ug/mL
[8] = library stock concentration (final ~1000-fold dilution): 2 mM, agonist: Imiquimod (TLR7) […]
[9] = library stock concentration (final ~1000-fold dilution): 2 mM, agonist: MPLA (TLR4) […]

## Cn1cnc(-c2cc3nccc(Oc4ccc(NC(=S)NC(=O)Cc5ccccc5)cc4F)c3s2)c1
RAW-Dual [1]; [3]
  NF-kB SEAP reporter activity: 0.326
RAW-Dual [1]; [4]
  NF-kB SEAP reporter activity: 0.555

## Cn1cnc(-c2cc3nccc(Oc4ccc(NC(=S)NC(=O)Cc5ccccc5)cc4F)c3s2)c1 (library stock concentration (final ~1000-fold dilution): 10 mM)
RAW-Dual [2]; agonist: LPS (TLR4) 0.1 ug/mL
  NF-kB SEAP reporter activity: 0.614
RAW-Dual [2]; [5]
  NF-kB SEAP reporter activity: 0.395
RAW-Dual [2]; [6]
  NF-kB SEAP reporter activity: 0.125
RAW-Dual [2]; [7]
  NF-kB SEAP reporter activity: 0.213

## Cl.Cl.c1cc(-c2cnn3cc(-c4ccc(OCCN5CCCCC5)cc4)cnc23)ccn1
RAW-Dual [1]; library stock concentration (final ~1000-fold dilution): 10 mM water, agonist: Imiquimod (TLR7) […]
  NF-kB SEAP reporter activity: 0.944
RAW-Dual [1]; library stock concentration (final ~1000-fold dilution): 10 mM water, agonist: MPLA (TLR4) […]
  NF-kB SEAP reporter activity: 1.2

## Cl.Cl.c1cc(-c2cnn3cc(-c4ccc(OCCN5CCCCC5)cc4)cnc23)ccn1 (library stock concentration (final ~1000-fold dilution): 10 mM water)
RAW-Dual [2]; agonist: LPS (TLR4) 0.1 ug/mL
  NF-kB SEAP reporter activity: 1.69
RAW-Dual [2]; [5]
  NF-kB SEAP reporter activity: 0.252
RAW-Dual [2]; [6]
  NF-kB SEAP reporter activity: 1.44
RAW-Dual [2]; [7]
  NF-kB SEAP reporter activity: 1.92

## CCC(=O)N1CCN(c2ccc(-n3c(=O)ccc4cnc5ccc(-c6cnc7ccccc7c6)cc5c43)cc2C(F)(F)F)CC1
RAW-Dual [1]; [8]
  NF-kB SEAP reporter activity: 0.44
RAW-Dual [1]; [9]
  NF-kB SEAP reporter activity: 1.51

## CCC(=O)N1CCN(c2ccc(-n3c(=O)ccc4cnc5ccc(-c6cnc7ccccc7c6)cc5c43)cc2C(F)(F)F)CC1 (library stock concentration (final ~1000-fold dilution): 2 mM)
RAW-Dual [2]; agonist: LPS (TLR4) 0.1 ug/mL
  NF-kB SEAP reporter activity: 1.55
RAW-Dual [2]; [5]
  NF-kB SEAP reporter activity: 1.02
RAW-Dual [2]; [6]
  NF-kB SEAP reporter activity: 0.421
RAW-Dual [2]; [7]
  NF-kB SEAP reporter activity: 0.629

## CCNC1(C(N)=O)CCN(c2ncnc3c2nc(-c2ccccc2Cl)n3-c2ccc(Cl)cc2)CC1.Cl
RAW-Dual [1]; [8]
  NF-kB SEAP reporter activity: 0.57
RAW-Dual [1]; [9]
  NF-kB SEAP reporter activity: 0.847

## CCNC1(C(N)=O)CCN(c2ncnc3c2nc(-c2ccccc2Cl)n3-c2ccc(Cl)cc2)CC1.Cl (library stock concentration (final ~1000-fold dilution): 2 mM)
RAW-Dual [2]; agonist: LPS (TLR4) 0.1 ug/mL
  NF-kB SEAP reporter activity: 0.587
RAW-Dual [2]; [5]
  NF-kB SEAP reporter activity: 0.493
RAW-Dual [2]; [6]
  NF-kB SEAP reporter activity: 0.537
RAW-Dual [2]; [7]
  NF-kB SEAP reporter activity: 0.482

## CC(C)NCC(O)COc1ccc(COCCOC(C)C)cc1.O=C(O)/C=C/C(=O)O (stereo not drawn) (library stock concentration (final ~1000-fold dilution): 10 mM)
RAW-Dual [2]; agonist: LPS (TLR4) 0.1 ug/mL
  NF-kB SEAP reporter activity: 1.05
RAW-Dual [2]; [5]
  NF-kB SEAP reporter activity: 0.873
RAW-Dual [2]; [6]
  NF-kB SEAP reporter activity: 0.984
RAW-Dual [2]; [7]
  NF-kB SEAP reporter activity: 1.03

## CC(C)NCC(O)COc1ccc(COCCOC(C)C)cc1.O=C(O)/C=C/C(=O)O (stereo not drawn)
RAW-Dual [1]; [3]
  NF-kB SEAP reporter activity: 0.869
RAW-Dual [1]; [4]
  NF-kB SEAP reporter activity: 1.02

## CC(Nc1nc(NC(C)C(F)(F)F)nc(-c2cccc(Cl)n2)n1)C(F)(F)F (stereo not drawn)
RAW-Dual [1]; [3]
  NF-kB SEAP reporter activity: 1.04
RAW-Dual [1]; [4]
  NF-kB SEAP reporter activity: 1.11

## CC(Nc1nc(NC(C)C(F)(F)F)nc(-c2cccc(Cl)n2)n1)C(F)(F)F (stereo not drawn) (library stock concentration (final ~1000-fold dilution): 10 mM)
RAW-Dual [2]; agonist: LPS (TLR4) 0.1 ug/mL
  NF-kB SEAP reporter activity: 1.26
RAW-Dual [2]; [5]
  NF-kB SEAP reporter activity: 1.18
RAW-Dual [2]; [6]
  NF-kB SEAP reporter activity: 0.998
RAW-Dual [2]; [7]
  NF-kB SEAP reporter activity: 1.09

## COc1ccc2cc1Oc1ccc(cc1)CC1c3cc(c(OC)cc3CCN1C)Oc1c(OC)c(OC)cc3c1C(C2)N(C)CC3 (stereo not drawn)
RAW-Dual [1]; [3]
  NF-kB SEAP reporter activity: 0.873
RAW-Dual [1]; [4]
  NF-kB SEAP reporter activity: 0.936

## COc1ccc2cc1Oc1ccc(cc1)CC1c3cc(c(OC)cc3CCN1C)Oc1c(OC)c(OC)cc3c1C(C2)N(C)CC3 (stereo not drawn) (library stock concentration (final ~1000-fold dilution): 10 mM)
RAW-Dual [2]; agonist: LPS (TLR4) 0.1 ug/mL
  NF-kB SEAP reporter activity: 1.82
RAW-Dual [2]; [5]
  NF-kB SEAP reporter activity: 0.93
RAW-Dual [2]; [6]
  NF-kB SEAP reporter activity: 1.21
RAW-Dual [2]; [7]
  NF-kB SEAP reporter activity: 0.915

## COc1cc(C2Oc3cc(C4Oc5cc(O)cc(O)c5C(=O)C4O)ccc3OC2CO)ccc1O (stereo not drawn)
RAW-Dual [1]; [3]
  NF-kB SEAP reporter activity: 0.843
RAW-Dual [1]; [4]
  NF-kB SEAP reporter activity: 1.21

## COc1cc(C2Oc3cc(C4Oc5cc(O)cc(O)c5C(=O)C4O)ccc3OC2CO)ccc1O (stereo not drawn) (library stock concentration (final ~1000-fold dilution): 10 mM)
RAW-Dual [2]; agonist: LPS (TLR4) 0.1 ug/mL
  NF-kB SEAP reporter activity: 1.77
RAW-Dual [2]; [5]
  NF-kB SEAP reporter activity: 1.18
RAW-Dual [2]; [6]
  NF-kB SEAP reporter activity: 0.973
RAW-Dual [2]; [7]
  NF-kB SEAP reporter activity: 0.954

## CC1(C)CC[C@]2(C(=O)n3ccnc3)CC[C@]3(C)[C@H](C(=O)C=C4[C@@]5(C)C=C(C#N)C(=O)C(C)(C)[C@@H]5CC[C@]43C)[C@@H]2C1 (library stock concentration (final ~1000-fold dilution): 10 mM)
RAW-Dual [2]; agonist: LPS (TLR4) 0.1 ug/mL
  NF-kB SEAP reporter activity: 0.311
RAW-Dual [2]; [5]
  NF-kB SEAP reporter activity: 0.196
RAW-Dual [2]; [6]
  NF-kB SEAP reporter activity: 0.0777
RAW-Dual [2]; [7]
  NF-kB SEAP reporter activity: 0.202

## CC1(C)CC[C@]2(C(=O)n3ccnc3)CC[C@]3(C)[C@H](C(=O)C=C4[C@@]5(C)C=C(C#N)C(=O)C(C)(C)[C@@H]5CC[C@]43C)[C@@H]2C1
RAW-Dual [1]; [3]
  NF-kB SEAP reporter activity: 0.139
RAW-Dual [1]; [4]
  NF-kB SEAP reporter activity: 0.261

## CC(C)c1ccc(NC(=O)Cn2cnc3c2c(=O)n(C)c(=O)n3C)cc1 (library stock concentration (final ~1000-fold dilution): 10 mM)
RAW-Dual [2]; agonist: LPS (TLR4) 0.1 ug/mL
  NF-kB SEAP reporter activity: 1.3
RAW-Dual [2]; [5]
  NF-kB SEAP reporter activity: 1.05
RAW-Dual [2]; [6]
  NF-kB SEAP reporter activity: 1.07
RAW-Dual [2]; [7]
  NF-kB SEAP reporter activity: 1.34

## CC(C)c1ccc(NC(=O)Cn2cnc3c2c(=O)n(C)c(=O)n3C)cc1
RAW-Dual [1]; [3]
  NF-kB SEAP reporter activity: 1.04
RAW-Dual [1]; [4]
  NF-kB SEAP reporter activity: 1.13

## C=CC[N+]1(C2CC3C4CCC5CC(O)C(N6CCOCC6)CC5(C)C4CCC3(C)C2OC(C)=O)CCCC1 (stereo not drawn) (library stock concentration (final ~1000-fold dilution): 10 mM)
RAW-Dual [2]; agonist: LPS (TLR4) 0.1 ug/mL
  NF-kB SEAP reporter activity: 1.42
RAW-Dual [2]; [5]
  NF-kB SEAP reporter activity: 0.925
RAW-Dual [2]; [6]
  NF-kB SEAP reporter activity: 1.1
RAW-Dual [2]; [7]
  NF-kB SEAP reporter activity: 1.15

## C=CC[N+]1(C2CC3C4CCC5CC(O)C(N6CCOCC6)CC5(C)C4CCC3(C)C2OC(C)=O)CCCC1 (stereo not drawn)
RAW-Dual [1]; [3]
  NF-kB SEAP reporter activity: 0.925
RAW-Dual [1]; [4]
  NF-kB SEAP reporter activity: 0.94

## CCC(CC)n1ccc2c(C(=O)NCc3c(C)cc(C)[nH]c3=O)cc(C#N)cc21
RAW-Dual [1]; [3]
  NF-kB SEAP reporter activity: 0.981
RAW-Dual [1]; [4]
  NF-kB SEAP reporter activity: 0.985

## CCC(CC)n1ccc2c(C(=O)NCc3c(C)cc(C)[nH]c3=O)cc(C#N)cc21 (library stock concentration (final ~1000-fold dilution): 10 mM)
RAW-Dual [2]; agonist: LPS (TLR4) 0.1 ug/mL
  NF-kB SEAP reporter activity: 1.44
RAW-Dual [2]; [5]
  NF-kB SEAP reporter activity: 1.08
RAW-Dual [2]; [6]
  NF-kB SEAP reporter activity: 1.11
RAW-Dual [2]; [7]
  NF-kB SEAP reporter activity: 0.998

## CCNC(=O)c1[nH]nc(-c2cc(Cl)c(O)cc2O)c1-c1ccc(OC)cc1
RAW-Dual [1]; [3]
  NF-kB SEAP reporter activity: 0.158
RAW-Dual [1]; [4]
  NF-kB SEAP reporter activity: 0.396

## CCNC(=O)c1[nH]nc(-c2cc(Cl)c(O)cc2O)c1-c1ccc(OC)cc1 (library stock concentration (final ~1000-fold dilution): 10 mM)
RAW-Dual [2]; agonist: LPS (TLR4) 0.1 ug/mL
  NF-kB SEAP reporter activity: 0.211
RAW-Dual [2]; [5]
  NF-kB SEAP reporter activity: 0.204
RAW-Dual [2]; [6]
  NF-kB SEAP reporter activity: 0.0641
RAW-Dual [2]; [7]
  NF-kB SEAP reporter activity: 0.133
